Structures are written as SMILES. The source holds more than one record for some entries. Only these are listed. An entry can have further records. The values listed for one entry are repeats in other runs, samples, wells, individuals or studies.

This assay relates to 252836-082-R-J2-PDC tumor spheroids, viability. Description: Anticancer human tumor 252836-082-R-J2-PDC patient-derived head and neck squamous cell carcinoma cell line growth inhibition [PI3K]. The conditions noted are these: spheroids with HUVEC and MSC; for IC50: compound alone; for viability, T/C: stronger effect = lower value. From the text:
Combinatorial screen of targeted agents with the PI3K inhibitors inavolisib, alpelisib, duvelisib, and copanlisib in multi-cell type tumor spheroids
A high-throughput screen of multi-cell type tumor spheroids was designed to identify active combinations of targeted small molecules and PI3K pathway inhibitors. Complex spheroids include a stromal component modeled by human endothelial cells (HUVEC) and fibroblasts modeled by human mesenchymal stem cells (MSCs). The concentration ranges selected for each drug and investigational agent were based upon clinically achievable concentrations if the clinical Cmax of the agent was known.
Compounds. The drugs and investigational agents: inavolisib (NSC800729), alpelisib (NSC765974), duvelisib (NSC772469), copanlisib (NSC816437), ipatasertib (NSC767898), afuresertib (NSC778305), talazoparib (NSC767125), sapanisertib (NSC764658), selumetinib (NSC741078), tovorafenib (DAY101, NSC766906), vemurafenib (NSC761431), ravoxertinib (NSC781343), sotorasib (NSC818433), MRTX1133 (NSC 836407), abemaciclib (NSC 768073), palbociclib (NSC758247), venetoclax (NSC 766270), SY5609 (NSC837396), enzalutamide (NSC755605), and darolutamide (NSC825331), were obtained from the National Cancer Institute (NCI) Developmental Therapeutics Program Chemical Repository. The FDA-approved anticancer drug set is available from the NCI Developmental Therapeutics Program. […] The stock solutions were prepared in dimethyl sulfoxide (DMSO, Sigma-Aldrich, St. Louis, MO, cat. D2650) at 800-fold the tested concentration and stored at -70 degrees C prior to their use. All drugs and investigational agents were tested over a range starting from a high concentration at or near the clinical Cmax and decreasing in half-log increments. If the clinical Cmax for an agent had not been determined, the highest concentration tested was 10 microM.
Cell Culture. All cells were maintained in an incubator at 37 degrees C and 5% CO2 with 95% humidity. The PDC lines were cultured according to standard operating procedures established by the NCI PDMR (https://pdmr.cancer.gov/sops/default.htm). All PDCs were thawed and cultured in Matrigel-coated flasks prepared with a working solution of 1X Ham's F-12 nutrient mix, without supplementation (Invitrogen, Waltham, MA, cat. 11765054), 100 U/mL penicillin-streptomycin (Invitrogen, cat. 15140122), and 2.5% Matrigel (Corning Inc., Corning, NY, cat. 354248) for the first three passages. The 354836-022-R-J1-PDC, 475296-252-R-J1-PDC, and 997726-040-R-J2-PDC lines were cultured in 6A media, which includes advanced DMEM/F-12 (Thermo Fisher Scientific, cat. 12634028), 10 mM HEPES (Thermo Fisher Scientific, cat. 15630080), 1X GlutaMAX supplement (Thermo Fisher Scientific, cat. 35050061), 0.1 mg/mL primocin (InvivoGen, San Diego, CA, cat. ant-pm-2), 10% defined fetal bovine serum, heat inactivated (HyClone Laboratories Inc., Logan, UT, cat. SH30070.03HI), 50% L-WRN conditioned media (ATCC, cat. CRL-3276), 1.25 mM N-Acetyl-L-cysteine (Sigma-Aldrich, cat. A9165), 10 mM nicotinamide (Sigma-Aldrich, cat. N0636), 1X B-27 supplement (Thermo Fisher Scientific, cat. 17504044), 1X N-2 supplement (Thermo Fisher Scientific, cat. 17502048), and 10 microM Y-27632 dihydrochloride (Tocris Bioscience, Bristol, United Kingdom, cat. 1254). The 624824-186-R-J2-PDC line was cultured in 6C/Colon 1B media, which includes all 6A media components plus 50 ng/mL human EGF recombinant protein (Thermo Fisher Scientific, cat. PHG0311). […]
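Also: spheroids exposed to agents for seven days before readout.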
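For viability, T/C in this document: percent of vehicle DMSO control viability so 100% = untreated growth.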

In the case of `CC(Nc1ccc2c(c1)OCCn1cc(N3C(=O)OCC3C(F)F)nc1-2)C(N)=O` (stereo not given), the 50% inhibitory concentration (IC50) (run of 06/12/2023) is on record as 367 nM, > 1 µM, 490 nM, 595 nM, 633 nM, 323 nM, 364 nM.

For `CCCS(=O)(=O)Nc1ccc(F)c(C(=O)c2c[nH]c3ncc(-c4ccc(Cl)cc4)cc23)c1F`, the viability, T/C reads like this: (compound alone 0.1 µM) 102, 105, 83.6, 111%; (compound alone 0.316 µM) 93.7, 84.5, 111, 107%. Consider `CNC(=O)c1ccc(N2C(=S)N(c3ccc(C#N)c(C(F)(F)F)c3)C(=O)C2(C)C)cc1F`, for which the viability, T/C (compound alone 0.0316 µM) is reported as 89, 118, 97.5, 95.6%. `CC1(C)CCC(CN2CCN(c3ccc(C(=O)NS(=O)(=O)c4ccc(NCC5CCOCC5)c([N+](=O)[O-])c4)c(Oc4cnc5[nH]ccc5c4)c3)CC2)=C(c2ccc(Cl)cc2)C1`: the IC50 is recorded as 5.64 µM, 5.96 µM, > 10 µM, 5.83 µM. Also, the viability, T/C (compound alone 3.16 µM) is 109, 101, 79.7, 87%. Further, the viability, T/C (compound alone 10 µM) was 2.49, 8.54, 90.5, 17.4%. For the compound `Cn1cnc2c(F)c(Nc3ccc(Br)cc3Cl)c(C(=O)NOCCO)cc21`, the IC50 is listed as 2.95 µM, > 3 µM, 2.52 µM, 2.47 µM. `C#Cc1c(F)ccc2cc(O)cc(-c3ncc4c(N5CC6CCC(C5)N6)nc(OCC56CCCN5CC(F)C6)nc4c3F)c12` (stereo not given): the viability, T/C reads like this: (compound alone 0.1 µM) 115, 71.9, 95.1, 89.6%; (compound alone 0.316 µM) 79.5, 81, 94.5, 105%. Regarding `CC(Nc1ncnc2nc[nH]c12)c1cc2cccc(Cl)c2c(=O)n1-c1ccccc1` (stereo not given), under “compound alone 1 µM”, the viability, T/C is on record as 90.3, 86.7, 92.6, 102, 114, 80.7, 107, 89.5%. Take `C=CC(=O)N1CCN(c2nc(=O)n(-c3c(C)ccnc3C(C)C)c3nc(-c4c(O)cccc4F)c(F)cc23)C(C)C1` (stereo not given): the viability, T/C is recorded as 125, 102, 93.4, 98.9% (compound alone 0.316 µM); 118, 92.6, 99.1, 94.5% (compound alone 1 µM); 97.9, 117, 131, 113% (compound alone 3.16 µM). Regarding `CCN1CCN(Cc2ccc(Nc3ncc(F)c(-c4cc(F)c5nc(C)n(C(C)C)c5c4)n3)nc2)CC1`, the viability, T/C (compound alone 1 µM) is given as 87.8, 83.9, 111, 85.5%.

The term IC50 denotes the concentration needed to halve the response being measured. A word on the viability, T/C: it is the result in the treated group divided by that in the control group, in per cent.

Source of the values: PubChem BioAssay AID1963985 (Molecular Pharmacology Branch, DTP, NCI, 2024).
